# Data from the supplement of paper PMC8728848.
# The list shows a part of the results.
# B1: LcH (Lens culinaris), P02870 (protein)
# chain: TETTSFSITKFSPDQQNLIFQGDGYTGKEGLTLTKVSKETGGRALYSTPIHIWDRDTVNVANFVTNGSQVFRESPNGYNVADGFTFFIAPVDTKPQTGGGYLGVFYNGKEYDKTSQTVAVEFDTFYNAAWDPSNKERHIGIDVNSIKSVNTKSWNLQNGVTSYTLNEVVPLKDVVPEWVRIGFSATTGAEFAAQEVHSWSFNSQLGHTSKS
# Experiments:
# Assay in all cases: glycan array binding signal (z-score within array); higher = stronger binding
# Conditions in all cases: glycan notation: IUPAC condensed, linker removed
# Gal(a1-2)Gal = biological target: Gal(a1-2)Gal
# Procedure, shortened: (§1)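 Glycan array data came from 3228 arrays in the Consortium for Functional Glycomics database, and only arrays with an available protein sequence were kept. Glycan names were put into IUPAC-condensed notation, and columns mapping to the same glycan were averaged. The binding signal is a within-array Z-score, averaged across arrays of one protein sequence run at different concentrations or buffers and across linkers. A negative Z-score can be read as non-binding.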
# Gal(a1-3)Gal = biological target: Gal(a1-3)Gal
# Procedure, shortened: as §1
# Gal(a1-3)Gal(b1-3)GlcNAc = biological target: Gal(a1-3)Gal(b1-3)GlcNAc
# Procedure, shortened: as §1
# Gal(a1-3)Gal(b1-4)Glc = biological target: Gal(a1-3)Gal(b1-4)Glc
# Procedure, shortened: as §1
# Gal(a1-3)Gal(b1-4)GlcNAc = biological target: Gal(a1-3)Gal(b1-4)GlcNAc
# Procedure, shortened: as §1
# [1] = biological target: Gal(a1-3)Gal(b1-4)[Fuc(a1-3)]GlcNAc
# Procedure, shortened: as §1
# [2] = biological target: Gal(a1-3)Gal(b1-4)[Fuc(a1-3)]GlcNAc(b1-2)Man(a1-3)[Gal(a1-3)Gal(b1-4)[Fuc(a1-3)]GlcNAc(b1-2)Man(a1-6)]Man(b1-4)GlcNAc(b1-4)GlcNAc
# Procedure, shortened: as §1
# Gal(a1-3)GalNAc = biological target: Gal(a1-3)GalNAc
# Procedure, shortened: as §1
# [3] = biological target: Gal(a1-3)[Gal(a1-4)]Gal(b1-4)GlcNAc
# Procedure, shortened: as §1
# Gal(a1-4)Gal(b1-4)Glc = biological target: Gal(a1-4)Gal(b1-4)Glc
# Procedure, shortened: as §1
# Gal(a1-4)Gal(b1-4)GlcNAc = biological target: Gal(a1-4)Gal(b1-4)GlcNAc
# Procedure, shortened: as §1
# [4] = biological target: Gal(a1-4)Gal(b1-4)GlcNAc(b1-3)Gal(b1-4)Glc
# Procedure, shortened: as §1
# Gal(a1-4)GlcNAc = biological target: Gal(a1-4)GlcNAc
# Procedure, shortened: as §1
# Gal(a1-6)Glc = biological target: Gal(a1-6)Glc
# Procedure, shortened: as §1
# Gal(b1-2)Gal = biological target: Gal(b1-2)Gal
# Procedure, shortened: as §1
# Gal(b1-3)Gal = biological target: Gal(b1-3)Gal
# Procedure, shortened: as §1
# Gal(b1-3)Gal(b1-4)GlcNAc = biological target: Gal(b1-3)Gal(b1-4)GlcNAc
# Procedure, shortened: as §1
# [5] = biological target: Gal(b1-3)Gal(b1-4)GlcNAc(b1-2)Man(a1-3)[Gal(b1-3)Gal(b1-4)GlcNAc(b1-2)Man(a1-6)]Man(b1-4)GlcNAc(b1-4)GlcNAc
# Procedure, shortened: as §1
# Gal(b1-3)GalNAc = biological target: Gal(b1-3)GalNAc
# Procedure, shortened: as §1
# [6] = biological target: Gal(b1-3)GalNAc(a1-3)[Fuc(a1-2)]Gal(b1-4)Glc
# Procedure, shortened: as §1
# [7] = biological target: Gal(b1-3)GalNAc(a1-3)[Fuc(a1-2)]Gal(b1-4)GlcNAc
# Procedure, shortened: as §1
# [8] = biological target: Gal(b1-3)GalNAc(b1-3)Gal(a1-4)Gal(b1-4)Glc
# Procedure, shortened: as §1
# [9] = biological target: Gal(b1-3)GalNAc(b1-4)Gal(b1-4)Glc
# Procedure, shortened: as §1
# [10] = biological target: Gal(b1-3)GalNAc(b1-4)[Neu5Ac(a2-3)]Gal(b1-4)Glc
# Procedure, shortened: as §1
# Gal(b1-3)GlcNAc = biological target: Gal(b1-3)GlcNAc
# Procedure, shortened: as §1
# [11] = biological target: Gal(b1-3)GlcNAc(b1-2)Man(a1-3)[Gal(b1-3)GlcNAc(b1-2)Man(a1-6)]Man(b1-4)GlcNAc(b1-4)GlcNAc
# Procedure, shortened: as §1
# [12] = biological target: Gal(b1-3)GlcNAc(b1-2)Man(a1-3)[Gal(b1-3)GlcNAc(b1-2)Man(a1-6)]Man(b1-4)GlcNAc(b1-4)[Fuc(a1-6)]GlcNAc
# Procedure, shortened: as §1
# [13] = biological target: Gal(b1-3)GlcNAc(b1-3)Gal(b1-3)GlcNAc
# Procedure, shortened: as §1
# [14] = biological target: Gal(b1-3)GlcNAc(b1-3)Gal(b1-4)Glc
# Procedure, shortened: as §1
# [15] = biological target: Gal(b1-3)GlcNAc(b1-3)Gal(b1-4)GlcNAc
# Procedure, shortened: as §1
# [16] = biological target: Gal(b1-3)[Fuc(a1-4)]GlcNAc
# Procedure, shortened: as §1
# [17] = biological target: Gal(b1-3)[Fuc(a1-4)]GlcNAc(b1-2)Man(a1-3)[Gal(b1-3)[Fuc(a1-4)]GlcNAc(b1-2)Man(a1-6)]Man(b1-4)GlcNAc(b1-4)GlcNAc
# Procedure, shortened: as §1
# [18] = biological target: Gal(b1-3)[Fuc(a1-4)]GlcNAc(b1-2)Man(a1-3)[Gal(b1-3)[Fuc(a1-4)]GlcNAc(b1-2)Man(a1-6)]Man(b1-4)GlcNAc(b1-4)[Fuc(a1-6)]GlcNAc
# Procedure, shortened: as §1
# [19] = biological target: Gal(b1-3)[Fuc(a1-4)]GlcNAc(b1-3)Gal(b1-3)[Fuc(a1-4)]GlcNAc
# Procedure, shortened: as §1
# [20] = biological target: Gal(b1-3)[Fuc(a1-4)]GlcNAc(b1-3)Gal(b1-4)GlcNAc
# Procedure, shortened: as §1
# [21] = biological target: Gal(b1-3)[Fuc(a1-4)]GlcNAc(b1-3)Gal(b1-4)[Fuc(a1-3)]GlcNAc
# Procedure, shortened: as §1
# [22] = biological target: Gal(b1-3)[GlcNAc(b1-6)]GalNAc
# Procedure, shortened: as §1
# [23] = biological target: Gal(b1-3)[Neu5Ac(a2-6)]GalNAc
# Procedure, shortened: as §1
# [24] = biological target: Gal(b1-3)[Neu5Ac(a2-6)]GlcNAc(b1-6)Gal(b1-4)Glc
# Procedure, shortened: as §1
# [25] = biological target: Gal(b1-3)[Neu5Ac(b2-6)]GalNAc
# Procedure, shortened: as §1
# [26] = biological target: Gal(b1-4)GalNAc(a1-3)[Fuc(a1-2)]Gal(b1-4)GlcNAc
# Procedure, shortened: as §1
# [27] = biological target: Gal(b1-4)GalNAc(b1-3)[Fuc(a1-2)]Gal(b1-4)GlcNAc
# Procedure, shortened: as §1
# Gal(b1-4)Glc = biological target: Gal(b1-4)Glc
# Procedure, shortened: as §1
# Gal(b1-4)Glc6S = biological target: Gal(b1-4)Glc6S
# Procedure, shortened: as §1
# Gal(b1-4)GlcNAc = biological target: Gal(b1-4)GlcNAc
# Procedure, shortened: as §1
binder,measurement,setting,value
B1,glycan array binding signal (z-score),Gal(a1-2)Gal,-0.122
same,glycan array binding signal (z-score),Gal(a1-3)Gal,-0.097
same,glycan array binding signal (z-score),Gal(a1-3)Gal(b1-3)GlcNAc,-0.11
same,glycan array binding signal (z-score),Gal(a1-3)Gal(b1-4)Glc,-0.145
same,glycan array binding signal (z-score),Gal(a1-3)Gal(b1-4)GlcNAc,-0.13
same,glycan array binding signal (z-score),[1],-0.114
same,glycan array binding signal (z-score),[2],-0.138
same,glycan array binding signal (z-score),Gal(a1-3)GalNAc,-0.104
same,glycan array binding signal (z-score),[3],-0.13
same,glycan array binding signal (z-score),Gal(a1-4)Gal(b1-4)Glc,-0.124
same,glycan array binding signal (z-score),Gal(a1-4)Gal(b1-4)GlcNAc,-0.127
same,glycan array binding signal (z-score),[4],-0.123
same,glycan array binding signal (z-score),Gal(a1-4)GlcNAc,-0.13
same,glycan array binding signal (z-score),Gal(a1-6)Glc,-0.137
same,glycan array binding signal (z-score),Gal(b1-2)Gal,-0.126
same,glycan array binding signal (z-score),Gal(b1-3)Gal,-0.122
same,glycan array binding signal (z-score),Gal(b1-3)Gal(b1-4)GlcNAc,-0.128
same,glycan array binding signal (z-score),[5],-0.101
same,glycan array binding signal (z-score),Gal(b1-3)GalNAc,-0.108
same,glycan array binding signal (z-score),[6],-0.147
same,glycan array binding signal (z-score),[7],-0.093
same,glycan array binding signal (z-score),[8],-0.118
same,glycan array binding signal (z-score),[9],-0.114
same,glycan array binding signal (z-score),[10],-0.105
same,glycan array binding signal (z-score),Gal(b1-3)GlcNAc,-0.133
same,glycan array binding signal (z-score),[11],-0.127
same,glycan array binding signal (z-score),[12],14.3
same,glycan array binding signal (z-score),[13],-0.142
same,glycan array binding signal (z-score),[14],-0.096
same,glycan array binding signal (z-score),[15],-0.138
same,glycan array binding signal (z-score),[16],-0.114
same,glycan array binding signal (z-score),[17],0.003
same,glycan array binding signal (z-score),[18],-0.076
same,glycan array binding signal (z-score),[19],-0.125
same,glycan array binding signal (z-score),[20],-0.152
same,glycan array binding signal (z-score),[21],-0.123
same,glycan array binding signal (z-score),[22],-0.118
same,glycan array binding signal (z-score),[23],-0.095
same,glycan array binding signal (z-score),[24],-0.094
same,glycan array binding signal (z-score),[25],-0.115
same,glycan array binding signal (z-score),[26],-0.102
same,glycan array binding signal (z-score),[27],-0.109
same,glycan array binding signal (z-score),Gal(b1-4)Glc,-0.131
same,glycan array binding signal (z-score),Gal(b1-4)Glc6S,-0.101
same,glycan array binding signal (z-score),Gal(b1-4)GlcNAc,-0.11
